Measurements as given in the RNAGym collection of RNA variant scans (doi:10.1093/nar/gkz1192).
Read counts are not given, so values of variants with three or more changes are uncertain.

B1: CPEB3 Ribozyme (parent)
chain: UAACAGGGGGCCACAGCAGAAGCGUUCACGUCGCAGCCCCUGUCAGAUUCUGGUGAAUCUGCGAAUUCUGCUGUAUAUCUC

Variants of: B1
Test: self-cleavage, relative activity (ratio to wild type); higher = more cleavage; in vitro, sequencing
Summary of the method: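 Libraries of CPEB3 self-cleaving ribozyme mutants came from rounds of error-prone PCR and carried barcodes, which DNA sequencing matched to variants. In vitro transcription used T7 RNA polymerase at 37°C for 5 hours, with a further 15 min in DNase I before EDTA stopped the reaction; the ribozymes cleaved during both steps. The RNA was reverse transcribed with template switching and sequenced on Illumina. Relative activity is the cleaved/total read fraction of a variant divided by that of the unmutated ribozyme, averaged over three batches with at least 5 reads.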

Variant | self-cleavage
UAACAGGGGACCACAGCAGAAGCGUUCAUGUCGCAGCCCCUGUCAGAUUCUCGUGAAUCUGCGAAUUCUGCUGUAUAUCUC [G10A C29U G52C] | 0.14
UAACAGGGGACCACAGCAGAAGCGUUCAUGUCGCAGCCCCUGUCAGAUUCUGGUGAAUCUGCGAAUUCUGCUGUAUAACUC [G10A C29U U78A] | 0.09
UAACAGGGGACCACAGCAGAAGCGUUCACGUCGUAGCCCCUGUCAGACUCUGGUGAAUCUGCGAAUUCUGCUGUAUAUCUC [G10A C34U U48C] | 0.06
UAACAGGGGACCACAGCAGAAGCGUUCACGUCGUAGCCCCUGUCAGAUUCUGGUGAAUCUGCGAAUUCAGCUGUAUAUCUC [G10A C34U U69A] | 0.05
UAACAGGGGACCACAGCAGAAGCGUUCACGUCGCAGACGCUGUCAGAUUCUGGUGAAUCUGGGAAUUCUGCUGUAUAUCUC [G10A C37A C39G C62G] | 0.05
UAACAGGGGACCACAGCAGAAGCGUUCACGUCGCAGCACCUGUCAGAUUCUGGUGAAUCUGCGAAUUCUGCUGCAUACCUC [G10A C38A U74C U78C] | 0.05
UAACAGGGGACCACAGCAGAAGCGUUCACGUCGCAGCCGCUGCCAGAUCCUGGUGAAACUGCGAAUUCUGCCGUAUAUCUC [G10A C39G U43C U49C U58A U72C] | 0.03
UAACAGGGGACCACAGCAGAAGCGUUCACGUCGCAGCCCAUGUCAGAUUCUGGUGAAUCUGCGAAUUCUGCUGUUUAUCCC [G10A C40A A75U U80C] | 0.08
UAACAGGGGACCACAGCAAAGGCGUCCACGUCGCAGCCCCUGUCGGAUUCUGGUGUAUCUGCGAAUUCUGCUGUAUAUCUC [G10A G19A A21G U26C A45G A56U] | 0.03
UAACAGGGGACCACAGCAAAAGCGUUCACAUCGCAGCCCCUGUCAGAUUCUGGUGAAUCUGCGAAUUCUGCUGUAUACCUC [G10A G19A G30A U78C] | 0.14
UAACAGGGGACCACAGCAAAAGCGCUCACGUCGCAGCCCCUGUCAGAUUCUGGUGAAUCUGCGAAUUCUGCAGUAUAUCCC [G10A G19A U25C U72A U80C] | 0.25
UAACAGGGGACCACAGCAGAAACGUUCACGUCGCAGCCCCGGUCAGAUUCUCGUGAAUCUGCGAAUUCUGCUGUAUAUCCC [G10A G22A U41G G52C U80C] | 0.04
UAACAGGGGACCACAGCAGAAGCAUUCACGUCGCAGCCCCUGUCAGAUUCUGGUGAAUCUGCAAAUCCUGCUGUAUAUCUC [G10A G24A G63A U67C] | 0.05
UAACAGGGGACCACAGCAGAAGCAUUCACGUCGCAGCCCCUGUCAGACUCUGGCGAAUCCGCGAAUUCUGCUGUAUAUCCC [G10A G24A U48C U54C U60C U80C] | 0.04
UAACAGGGGACCACAGCAGAAGCCAUCACGUCGCAGCCCCUGUCAGAUUCUGGCGAAUCUGCGAAUUCUGCUGUAUAUCUC [G10A G24C U25A U54C] | 0.04
UAACAGGGGACCACAGCAGAAGCUUUCACGUCGCAGCCCCUGUCAGAUUCUGGUGAAUCUGCGAAUUCAGCUGUAUAUCUC [G10A G24U U69A] | 0.12
UAACAGGGGACCACAGCAGAAGCUUUCACGUCGCAGCCCCUGUCAGAUUCUGGUGAAUCUGCGAAUUCUGCCGUAUAUCUC [G10A G24U U72C] | 0.12

Variant | self-cleavage
UAACAGGGGACCACAGCAGAAGCGUUCACGUCACAGCCCCUGUCAGAUUCUGGUGAAUCUGCGAAUUCCGCUGUAUAUCUC [G10A G33A U69C] | 0.13
UAACAGGGGACCACAGCAGAAGCGUUCACGUCGCACCCCCUGCCAGAUUCUGGUGAAUCUGCGAACUCAGCUGUAUAUCUC [G10A G36C U43C U66C U69A] | 0.05
UAACAGGGGACCACAGCAGAAGCGUUCACGUCGCACCCCCUGUCAGAUUCUGGUGAAUCUGCGAAUUCCGCCGUAAAUCUC [G10A G36C U69C U72C U76A] | 0.05
UAACAGGGGACCACAGCAGAAGCGUUCACGUCGCAGCCCCUGUCAAAUUCUGGUGGAUCUGCGAACUCUGUCGUAUAUCUC [G10A G46A A56G U66C C71U U72C] | 0.13
UAACAGGGGACCACAGCAGAAGCGUUCACGUCGCAGCCCCUGUCAUAUUCUGGUGAAUCUGCGGAUUCCGCUGUUUAUCCC [G10A G46U A64G U69C A75U U80C] | 0.11
UAACAGGGGACCACAGCAGAAGCGUUCACGUCGCAGCCCCUGUCAGAUUCUCGUGAAUCUGCGAAUCCUGCUGUAUACCUC [G10A G52C U67C U78C] | 0.04
UAACAGGGGACCACAGCAGAAGCGAUCGCGUCGCAGCCCCUGUCAGAUUCUGGUGAAUCUGCGAAUUCUGCCGUACAUCUC [G10A U25A A28G U72C U76C] | 0.04
UAACAGGGGACCACAGCAGAAGCGAUCACGUCGCAGCCCCUGUCAGAUUCUGGUGAAUCUGCGUAUUCAGCUGUAUAUCUC [G10A U25A A64U U69A] | 0.04
UAACAGGGGACCACAGCAGAAGCGAUCACGUCGCAGCCCAUGUCAGAUUCUGGUGAUUCUGCGAAUUCUGCCGUAUAUCUC [G10A U25A C40A A57U U72C] | 0
UAACAGGGGACCACAGCAGAAGCGAUCACGUCGCAGCCCUUGUCAGAUUCCGGUGAAUCUGCGAAUUCUGCCGUAUAUCUC [G10A U25A C40U U51C U72C] | 0.1
UAACAGGGGACCACAGCAGAAGCGAUCACGUCGCAGCCCCUGUCAGAUUCUGGUGAAUCUGCGAAUUCUGCUGCAUAUCUC [G10A U25A U74C] | 0.07
UAACAGGGGACCACAGCAGAAGCGCUCACGUCGCCGCCCCUGUCAGAUUCUGGUGAAUCUGCGAAUUCUGCUGUAUAUCUC [G10A U25C A35C] | 0.05
UAACAGGGGACCACAGCAGAAGCGCUCACGUCGCGGCCCCUGUCAGAUUCUGGUGAAUCUGCGAAUCCUGCUGUAUAUCUC [G10A U25C A35G U67C] | 0.12
UAACAGGGGACCACAGCAGAAGCGCUCACGUCGCAGCCCCUGUCAGAUUCUGGUGAUUCUGCGAAUUCUGCUGUAUAUCUC [G10A U25C A57U] | 0.27
UAACAGGGGACCACAGCAGAAGCGCUCACGUCGAAGCUCUUGUCAGAUUCUGGCGAAUCUGCGAAUUCUGCUGUAUAUCUC [G10A U25C C34A C38U C40U U54C] | 1.16
UAACAGGGGACCACAGCAGAAGCGCUCACAUCGCAGCCCCUGUCAGAAUCUGGUGAAUCUGCGAACUCUGCUGUAUAUCUC [G10A U25C G30A U48A U66C] | 0.05
UAACAGGGGACCACAGCAGAAGCGCUCACGUCUCAGCCCCUGUCAGAUUCUGGUGAAUCUGCGAAUUCUGCGGUAUAUCCC [G10A U25C G33U U72G U80C] | 0.04
